# According to PubChem BioAssay AID686970 (National Center for Advancing Translational Sciences (NCATS), 2013):
# Screen size: about 360,000 compounds; about 6,000 (1.7%) were called active. Inconclusive results, whose numbers are uncertain, are shown with a selection of clear calls. The call rests on the fitted dose curve; in most records, active means well fitted cell-killing curve with a large enough effect; inconclusive means small, poorly fitted or top-dose-only effect, or effect the other way; inactive means flat fitted curve, though single readings scatter. Potencies of inconclusive entries are doubtful fits and often do not repeat.
# Assay: qHTS for induction of synthetic lethality in tumor cells producing 2HG: qHTS for the HT-1080-NT fibrosarcoma cell line;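 further: NT is the 2HG producing partner of a matched IDH1 knockdown line; nearly all actives have a fitted effect of over 55% in size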;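 on activity, negative = less viability: 0% = DMSO-treated cells and -100% = media-only wells without cells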
# Conditions: HT-1080-NT fibrosarcoma viability, CellTiter-Glo ATP luminescence, 48 h; activity, negative = less viability: at 46.1 µM (top of the series) unless noted
# Procedure, shortened: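 Read-out is CellTiter-Glo luminescence after 10 minutes at room temperature, following 48 hours' compound treatment of HT-1080-NT cells (750 cells/well, RPMI, 5% FBS, 37 degrees C).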
# Potency means the concentration at half of the fitted maximal effect; tags describe the fitted curve by direction and shape.
Structure (SMILES),Potency,"activity, negative = less viability"
COc1cccc(-c2csc(N3CCN(CC(=O)NNC(=O)c4ccc(Cl)cc4)CC3)n2)c1,"inconclusive: 22.4 µM [cytotoxic, single point]",
CC(C)c1ccc(NC(=O)Nc2nc(C(C)N)cs2)cc1 (stereo unspecified),"inconclusive: 29.1 µM [cytotoxic, single point]",
CC(C)(C)N1C(=O)c2ccc(C(=O)Nc3ccc(O)cc3)cc2C1=O,"inconclusive: 18.4 µM [cytotoxic, single point]",
O=C(CCc1nnc2ccc(N3CCCC3)nn12)Nc1ccc(F)cc1F,,inactive: 5.48%
Cc1ccc(C)c(C2=NNC(=NCc3ccccc3)SC2)c1,"inconclusive: 25.9 µM [cytotoxic, single point]",
C/C(=N/NC(=O)COc1ccc(C(C)(C)C)cc1)c1ccc(N2CCOCC2)cc1,"inconclusive: 29.1 µM [cytotoxic, single point]",
OCCN1CCN(C2Cc3cc(Cl)ccc3Sc3ccc(Cl)cc32)CC1 (stereo unspecified) (tested in a mixture with another compound),"inconclusive: 18.4 µM [cytotoxic, single point]",
CC(=O)c1c(C)[nH]c(C(=O)CN2CCN(S(=O)(=O)c3ccccc3F)CC2)c1C,"inconclusive: 29.1 µM [cytotoxic, single point]",
Cc1ccc(NC(=O)CSc2nc3ccccc3c(=O)n2CCCN2CCCCC2)cc1Cl,active: 23.1 µM,
CCN1CCCC1CN(Cc1cc2c(C)cc(C)cc2[nH]c1=O)C(=O)NC1CCCCC1 (stereo unspecified),"inconclusive: 23.1 µM [cytotoxic, single point]",
CCn1c(=O)c(C(=O)Nc2ccccc2)c(O)c2ccccc21,,inactive: -1.71%
COc1cc(C#Cc2c(-c3cncn3C)n(C)c3ccc(-c4ccc(CN5CCOCC5)cc4)cc23)cc(OC)c1,"inconclusive: 20.6 µM [cytotoxic, single point]",
O=C(Oc1ccc[nH]c1=O)c1ccc(F)cc1,"inconclusive: 20.6 µM [cytotoxic, partial curve]",
O=C1NC(c2ccc(O)cc2)Nc2ccccc21 (stereo unspecified),"inconclusive: 23.1 µM [cytotoxic, single point]",
O=C(Nc1ccccc1C(=O)N/N=C/c1ccco1)c1ccc(F)cc1,"inconclusive: 18.4 µM [cytotoxic, partial curve]",
O=C1NC(=S)/C(=C\c2ccc(-c3ccccc3Cl)o2)S1,"inconclusive: 20.6 µM [cytotoxic, single point]",
COc1ccccc1C(=O)N1CCN(c2cccc(C(F)(F)F)c2)CC1,active: 14.6 µM,
O=C1CN(C(=O)CSc2nnc(-c3ccccc3)n2Cc2ccc3c(c2)OCO3)c2ccccc2N1,"inconclusive: 2.91 µM [rising, partial curve]",
Cc1ccc(-c2ccc(CN3C(C(C)C)C(=O)N(Cc4cn(CCC5OCCO5)nn4)CCS3(=O)=O)cc2)c(C)c1 (stereo unspecified),"inconclusive: 16.4 µM [cytotoxic, single point]",
C=CCn1c(C)cc(C(=O)CN2NS(=O)(=O)c3ccccc3C2=O)c1C,active: 16.4 µM,
Cc1ccc(-c2c[n+](CC(=O)Nc3ccccc3C)c3n2CCC3)cc1,,inactive: -1.53%
Cc1ccc(C(=O)C2COC(=O)C2)cc1 (stereo unspecified),"inconclusive: 35.5 µM [cytotoxic, single point]",
CC[C@@H]1Cc2cc(O)ccc2C2=C1c1ccc(O)cc1C[C@H]2CC,active: 18.4 µM,
COc1ccc(NS(=O)(=O)c2cccc(C(=O)N/N=C/c3ccccn3)c2)cc1,,inactive: -4.57%

Structure (SMILES),Potency,"activity, negative = less viability"
CC1C=CCC2C(=O)N(c3cc(Cl)ccc3O)C(=O)C12 (stereo unspecified),,inactive: 2.98%
CCn1c(=N)n(CC(=O)c2ccc(Cl)c(Cl)c2)c2ccccc21,"inconclusive: 32.6 µM [cytotoxic, single point]",
Cc1ccc(OCCNS(=O)(=O)c2ccc(Cl)cc2)cc1,,inconclusive: -5.14% [cytotoxic] [at 9.24 µM]
O=C1CSCc2nc3ccccc3n21,,inactive: 8.79%
O=C1CC(c2cc([N+](=O)[O-])ccc2Cl)c2c(ccc3ccccc23)N1 (stereo unspecified),"inconclusive: 18.4 µM [cytotoxic, single point]",
Fc1cccc(F)c1-n1c(CN2CCCCC2)csc1=S,"inconclusive: 10.3 µM [cytotoxic, partial curve]",
Cc1[nH]c2ccccc2c1C(=O)CN1C(=O)NC(C)(c2ccc(Cl)cc2Cl)C1=O (stereo unspecified),"inconclusive: 29.1 µM [cytotoxic, single point]",
NNC(=O)CSc1c(-c2ccccc2)c2cc(Cl)ccc2[nH]c1=O,,inactive: -2.26%
CCOC(=O)c1ccc(NC(=O)CCc2nc(-c3ccccc3)no2)cc1,,inactive: -0.681%
Cc1ccc(Cl)cc1NC(=O)c1ccc(Cn2cc(Cl)cn2)cc1,"inconclusive: 16.4 µM [cytotoxic, single point]",
Cc1c(CCOC(=O)C2C3CC4CC(C3)CC2C4)sc[n+]1CC(=O)c1ccc(Br)cc1 (stereo unspecified),"inconclusive: 18.4 µM [cytotoxic, single point]",
FC(F)(F)c1ccccc1Cc1c(-c2ccco2)nc2ccc(Br)cn12,"inconclusive: 29.1 µM [cytotoxic, single point]",
O=C1CCCN1CCCNc1nc2c(S(=O)(=O)c3ccccc3)nnn2c2ccc(Cl)cc12,"inconclusive: 25.9 µM [cytotoxic, single point]",
C#CCOCCOCCOCCNc1nc(N2CCN(C(=O)[C@H](CCCCN)n3cc([C@@H](N)CC(C)C)nn3)CC2)nc(N2CCN(C(=O)[C@H](Cc3cc4ccccc4[nH]3)n3cc([C@@H](N)Cc4ccc(O)cc4)nn3)CC2)n1,"inconclusive: 29.1 µM [rising, single point]",
CC(C)NC(=O)C12CC3CC(C1)CC(n1cnc(Cl)n1)(C3)C2,,inactive: 0.666%
COc1ccccc1NC(=O)NC1(C)CCS(=O)(=O)C1 (stereo unspecified),,inactive: 2.74%
CC(C)(C)C(=O)Nc1cc(S(=O)(=O)N2CCCCC2)ccc1N1CCCCC1,"inconclusive: 20.6 µM [cytotoxic, single point]",
O=C(CN(C(=O)c1csnn1)c1cccc2ccccc12)NCc1ccc(F)cc1,,inactive: 4.73%
CCOC(=O)c1cc(CC)sc1NC(=O)c1ccc(N2CCOCC2)c([N+](=O)[O-])c1,,inactive: -0.5% [at 9.24 µM]
COC(=O)c1cnn2c(C(F)(F)F)cc(-c3ccccc3)nc12,"inconclusive: 22.4 µM [cytotoxic, partial curve, poor fit]",
COc1ccc2sc(-c3ccc(N(C)C)cc3)c(C#CC(C)(C)O)c2c1,"inconclusive: 14.6 µM [cytotoxic, partial curve]",
CC(=O)NC(C(=O)c1ccccc1)C(=O)c1ccccc1,,inactive: 7.62%
O=C(COc1ccccc1)Nc1ccc2c(c1)nc1n2CCSC1,,inconclusive: 36.1%
CCN(CC)S(=O)(=O)c1ccc(C(=O)N2CCN=C2SCc2cccnc2)cc1,,inactive: 1.18%

Structure (SMILES),Potency,"activity, negative = less viability"
COc1ccc(/C=N/NC(=O)c2cc(-c3ccccc3OC)nc3ccccc23)cc1COC(C)=O,,inactive: -20.9%
C/C(=N\Nc1ccc(F)cc1F)c1ccccc1O,"inconclusive: 8.2 µM [cytotoxic, partial curve]",
C=CCSc1nc2sc3c(c2c(=O)[nH]1)CC(C)(CC)OC3 (stereo unspecified),,inactive: 13.7%
Cc1ccc(/C=N/NC(=O)CSCc2ccc(Cl)cc2)cc1,"inconclusive: 29.1 µM [cytotoxic, single point]",
CC1(C)Cc2nc3oc4c(N(CCO)Cc5ccccc5)ncnc4c3cc2CO1,,inactive: -18.9%
CCOc1ccc(-n2c(-c3ccc(Br)cc3)c[n+]3c2CCCCC3)cc1,active: 8.2 µM,
O=C(c1ccc(Cl)c(S(=O)(=O)N2CCCCCC2)c1)N1CCN(c2ccccn2)CC1,"inconclusive: 35.5 µM [cytotoxic, single point]",
COc1cc(/C=c2\s/c(=C\C(=O)C(C)(C)C)[nH]c2=O)cc(OC)c1OC,,inactive: -24.1%
COc1ccc(NC(=O)C(c2ccncc2)n2c(=O)c(-c3ccccc3)nc3ccccc32)cc1 (stereo unspecified),,inactive: -23%
COc1ccc2c(c1)C(=NNC(=O)c1ccccn1)c1cc(OC)ccc1-2,,inactive: 20%
CCOc1ccc(Cl)cc1-c1cc(C(=O)NCc2cc(C(F)(F)F)cc(C(F)(F)F)c2)[nH]n1,"inconclusive: 29.1 µM [cytotoxic, single point]",
COc1ccc(C(=O)C2CCCN(Cc3cc(C)c(O)c(C)c3)C2)c(OC)c1 (stereo unspecified),"inconclusive: 8.2 µM [cytotoxic, partial curve]",
CCCCCN1C=CC(=C2C(=O)c3ccccc3C2=O)C=C1,active: 23.1 µM,
N#Cc1ncc(-c2ccc3c(c2)OCCOCCOCCOCCO3)nc1C#N,,inactive: 11.5%
Cc1ccc([C@H]2C[C@H](n3cc(-c4ccc(F)cc4)nn3)[C@@H](O)CN2CC2CCCCC2)cc1,,inactive: 9.01%
O=C(NCCC1CCCCN1S(=O)(=O)c1cccs1)C(=O)Nc1ccccc1F (stereo unspecified),,inactive: 4.96%
c1cncc(-c2nc(N3CCOCC3)c3ccccc3n2)c1,"inconclusive: 11.2 µM [cytotoxic, single point]",
c1ccc2[nH]c(CSc3nc4ccccc4s3)nc2c1,,inactive: -13.2%
COCCCNC(=O)C[C@@H]1C[C@@]2(C(=O)OC)CCCCC=C2N(Cc2cccc3ccccc23)C1=O,,inactive: 7.03%
CC(C)CNc1nc(N)c([N+](=O)[O-])c(N2CCCCCC2)n1,"inconclusive: 20.6 µM [cytotoxic, single point]",
COc1ccc(C(=O)N=C2SC3CS(=O)(=O)CC3N2c2ccc(C(C)=O)cc2)cc1 (stereo unspecified),,inactive: 18.2%
CC(C)CC(N)c1csc(Nc2ccc(C(=O)N(C)Cc3ccccc3)cn2)n1 (stereo unspecified),active: 4.61 µM,
COC(=O)C1=C(C)N(Cc2ccccc2)C(=NCc2cccc(Cl)c2)N[C@H]1c1cccc(F)c1,"inconclusive: 23.1 µM [cytotoxic, single point]",
